{
  "source": "PubChem BioAssay AID1625",
  "about": "(Sanford-Burnham Center for Chemical Genomics, 2009)",
  "note": "This is one part of the list. Further columns of the screen follow, without active or inactive calls. The list favours compounds with an active or inconclusive main result.",
  "data": [
    {"assay": "up-regulation of insulin promoter-GFP reporter – imaging, high-content screening, mouse beta cells (AID 1625);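 further: total cells summed across four imaged fields per well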", "details": "MIN6 insulin promoter-GFP reporter, measured here: cytotoxicity, nuclei count, at 5 µM", "units": {"cell count": "cells"}, "values": [
      {"smiles": "CCCS(=O)(=O)N1CCC(C(=O)N2CCOCC2)CC1", "cell count": 1500},
      {"smiles": "CC1=CC(=O)C=C(C)C1=NOc1ccccc1[N+](=O)[O-]", "cell count": 422},
      {"smiles": "Cc1c(C(c2ccc([N+](=O)[O-])cc2)c2c(C)n(C)n(-c3ccccc3)c2=O)c(=O)n(-c2ccccc2)n1C", "cell count": 1360},
      {"smiles": "CCN(CC)S(=O)(=O)c1ccc(Oc2ccc(S(=O)(=O)N(CC)CC)cc2)cc1", "cell count": 279},
      {"smiles": "CCCCCCc1cc2cc(C(=O)Nc3ccccc3)c(=O)oc2cc1O", "cell count": 476},
      {"smiles": "O=S(=O)(NCc1ccncc1)c1ccc(Br)s1", "cell count": 282},
      {"smiles": "CC1=C/C(=C\\C=C(C#N)C#N)N(C)c2ccccc21", "cell count": 870},
      {"smiles": "CCN1/C(=C/c2ccc3cc(C)ccc3[n+]2CC)Sc2ccccc21", "cell count": 501},
      {"smiles": "O=C1/C(=C/c2ccc(N3CCCC3)cc2)NC(=S)N1C1CC1", "cell count": 962},
      {"smiles": "CC[n+]1c(/C=C/C=C/N(C(C)=O)c2ccccc2)sc2cc(OC)ccc21", "cell count": 818},
      {"smiles": "CCN(CC)c1ccc(/C=C2\\SC(=O)N(C(C)C)C2=O)o1", "cell count": 1090},
      {"smiles": "O=C(Nc1cc2c3c(c1)C1CCCC1CN3CC1CCCC21)c1ccc([N+](=O)[O-])cc1", "note": "(stereo unspecified)", "cell count": 265},
      {"smiles": "CCN1C/C(=C/c2ccc(OC)c(O)c2)C(=O)/C(=C/c2ccc(OC)c(O)c2)C1", "cell count": 347},
      {"smiles": "CCNc1ccc(Br)cc(C(=O)/C=C/c2ccc(Cl)cc2Cl)c1=O", "cell count": 369},
      {"smiles": "CN(C)CCOCCOc1ccccc1-c1ccccc1", "cell count": 1500},
      {"smiles": "COc1ccc(C2CC(C(F)(F)F)n3nc(C(=O)NCc4c(C)nn(C)c4C)c(Cl)c3N2)cc1", "note": "(stereo unspecified)", "cell count": 212},
      {"smiles": "O=C1NC(=S)S/C1=C\\C=C\\c1ccc([N+](=O)[O-])o1", "cell count": 325},
      {"smiles": "O=C(CCl)Nc1cccc2ncccc12", "cell count": 897},
      {"smiles": "CCN(CC)S(=O)(=O)c1ccc(Cl)c(NC(=O)COC(=O)/C=C/c2cc(OC)c(OC)c(OC)c2)c1", "cell count": 461},
      {"smiles": "CN(C)c1ccc(/C=C2\\C(=N)N3C(=NC2=O)Sc2cc(S(C)(=O)=O)ccc23)cc1", "cell count": 1120},
      {"smiles": "CCN(CC)CCn1c(=S)[nH]c2ccc(Cl)cc2c1=O", "cell count": 1270},
      {"smiles": "O=C(NCC(c1cccnc1)N1CCOCC1)NC1CCCCC1", "note": "(stereo unspecified)", "cell count": 428},
      {"smiles": "O=C(O)CC12CSc3[nH]c(=O)sc3C1c1ccccc1OC2=O", "note": "(stereo unspecified)", "cell count": 785},
      {"smiles": "COc1cccc(S(=O)(=O)NCc2ccc(C(=O)Nc3ccc(Cl)c(Cl)c3)cc2)c1", "cell count": 839},
      {"smiles": "COc1ccc(CCNc2ncnc3sccc23)cc1OC", "cell count": 433},
      {"smiles": "CCOc1ccc(CNc2ncnc(N)n2)cc1", "cell count": 314},
      {"smiles": "O=C(COC(=O)CNC(=O)c1ccccc1)Nc1ccc(Cl)cc1C(F)(F)F", "cell count": 336},
      {"smiles": "CCc1ccc(-c2nn(-c3ccccc3)cc2CSC(=N)N)cc1", "cell count": 379},
      {"smiles": "Cc1ccc(NS(=O)(=O)c2cc([N+](=O)[O-])ccc2N/N=C/c2sc(N3CCOCC3)nc2-c2ccccc2)c(C)c1", "cell count": 871},
      {"smiles": "O=c1cc2oc3cc(O)c(O)cc3c(-c3ccccc3O)c-2cc1O", "cell count": 1410},
      {"smiles": "N#Cc1c(-c2ccco2)cc(C2CC2)nc1SCC(=O)c1ccccc1", "cell count": 931},
      {"smiles": "CC(C)CN1C(=O)/C(=C/c2c(N3CCc4ccccc4C3)nc3ccccn3c2=O)SC1=S", "cell count": 977},
      {"smiles": "COc1ccc(C[C@H]2CN3C(=NC[C@@H]3Cc3ccccc3)N2C[C@H](C)NC(=O)CCC2CCCCC2)cc1", "cell count": 464},
      {"smiles": "CC(C)OC(=O)C[N+](C)(C)CCN1C(=O)C2C(c3ccccc3)C=CC(c3ccccc3)C2C1=O", "note": "(stereo unspecified)", "cell count": 323},
      {"smiles": "CCCCC1=CC2=CC(=O)C(C)(OC(=O)CC)C(=O)C2=CN1Cc1ccco1", "note": "(stereo unspecified)", "cell count": 498},
      {"smiles": "CN1CC=C2C(C#N)=C(N)C(C#N)(C#N)C(Cc3ccccc3)C2C1", "note": "(stereo unspecified)", "cell count": 1870},
      {"smiles": "CCN1CC=C2C(C#N)=C(N)C(C#N)(C#N)C(CCc3ccccc3)C2C1", "note": "(stereo unspecified)", "cell count": 1320},
      {"smiles": "O=C(c1cccs1)N(Cc1ccco1)Cc1cc2ccccc2[nH]c1=O", "cell count": 490},
      {"smiles": "COc1ccc2c(c1)[nH]c1c(N3CCN(Cc4ccc5c(c4)OCO5)CC3)ncnc12", "cell count": 268},
      {"smiles": "O=C(NCc1ccccc1)c1cncc(Br)c1", "cell count": 340},
      {"smiles": "CC(O)CSc1nc2c(c(=O)n(C)c(=O)n2C)n1CCCc1ccccc1", "note": "(stereo unspecified)", "cell count": 407},
      {"smiles": "COc1ccc(-c2nc3cc(NC(=O)Cc4ccc(OC)c(OC)c4)ccc3o2)cc1", "cell count": 483},
      {"smiles": "CCCN1C(=O)/C(=C/c2c(NCCCOC(C)C)nc3c(C)cccn3c2=O)SC1=S", "cell count": 726},
      {"smiles": "N#Cc1c(NC(=S)NC(=O)c2ccccc2)sc2c1CCN(CCc1ccccc1)C2", "cell count": 920},
      {"smiles": "Cc1cccc2cc(-c3ccccc3)c(-c3ccccc3)c[n+]12", "cell count": 391},
      {"smiles": "COc1cc2c(cc1OC)C1=CC(=O)C(=O)N1C(C)(C)C2", "cell count": 1370},
      {"smiles": "Cc1nn(Cc2ccc(C(=O)NC(C)(C)C)o2)c(C)c1Br", "cell count": 363},
      {"smiles": "N#C/C(=C/c1ccc(N2CCCCC2)o1)C(=O)NCCc1c[nH]c2ccccc12", "cell count": 1460},
      {"smiles": "COC(=O)c1cnn2c(C(F)(F)F)cc(-c3ccc(F)cc3)nc12", "cell count": 841},
      {"smiles": "COc1ccc(C)cc1NC(=O)CC(NC(C)=O)c1ccccc1", "note": "(stereo unspecified)", "cell count": 1340},
      {"smiles": "Cn1c(=O)c2c(nc(NCc3ccc4c(c3)OCO4)n2Cc2ccccc2F)n(C)c1=O", "cell count": 434},
      {"smiles": "CCN(CC)c1nc(SCCOC(=O)Nc2ccccc2)nc(N(CC)CC)n1", "cell count": 484},
      {"smiles": "Cc1cccc2sc(NNC(=O)c3ccc4c(c3)OCCO4)nc12", "cell count": 1220},
      {"smiles": "Cc1ccccc1OCC(O)Cn1c(=N)n(Cc2ccccc2)c2ccccc21", "note": "(stereo unspecified)", "cell count": 346},
      {"smiles": "COC(=O)c1c[nH]n2c(=O)c(Cc3ccc(F)cc3Cl)c(C)nc12", "cell count": 1230},
      {"smiles": "NC(N)=NC(N)=Nc1ccc(SC(F)(F)F)cc1", "cell count": 297},
      {"smiles": "Cc1ccc2c(c1)[nH]c1c(N3CCN(Cc4ccc5c(c4)OCO5)CC3)ncnc12", "cell count": 262},
      {"smiles": "CCCCCCn1c2c(c(=N)c3c1CCC3)CCC2", "cell count": 247},
      {"smiles": "Nc1nc(-c2ccc(Cl)cc2)c(N=Nc2ccc(S(=O)(=O)N3CCOCC3)cc2)s1", "cell count": 1260},
      {"smiles": "N#C/C(=C\\c1ccc(N2CCCCC2)o1)C(=O)Nc1cccc(Br)c1", "cell count": 1120},
      {"smiles": "COc1cccc(COc2cc3ccccc3nc2C)c1", "cell count": 223},
      {"smiles": "CCOc1cc(CNCCc2ccc(S(N)(=O)=O)cc2)ccc1OCc1ccc(Cl)cc1", "cell count": 294},
      {"smiles": "N#CC(C#N)=C1C=CC=CN1/C(=C\\c1ccco1)C(=O)c1ccc(Br)cc1", "cell count": 379},
      {"smiles": "COc1nc(Nc2nc3ccccc3c(=O)[nH]2)nc2ccc(C)cc12", "cell count": 344},
      {"smiles": "O=c1oc2c(CN3CCCCC3)c(O)ccc2cc1-c1nc2ccccc2[nH]1", "cell count": 1280},
      {"smiles": "CCNc1ccc(Br)cc(C(=O)/C=C/c2c(Cl)cccc2Cl)c1=O", "cell count": 403}
    ]}
  ]
}
